Laboratory results taken from PubChem BioAssay (NCATS).
Values joined by “and” are separate entries in the source; they are usually repeats but may differ in a detail not shown here. Equal entries are not always repeated. Inconclusive results, whose numbers are uncertain, are shown with a selection of clear calls. For part of these data: Where the call is inconclusive, the potency comes from a doubtful curve fit. Active and inactive are the calls of the source. Unless noted, calls follow the shape of the dose curve; as a rule, active = well fitted curve in the direction sought with a large enough effect; inconclusive = small, poorly fitted or top-dose-only effect, or another doubt; inactive = no such curve, though single readings can be large; an effect the other way counts as inactive or inconclusive.

Key:
Furin (Homo sapiens) = Furin (Homo sapiens) (UniProt P09958); test: Furin counterscreen qHTS for Zika virus inhibitors (AID 1347149); details: furin enzymatic counterscreen, fluorogenic substrate; activity change, negative = inhibition: at 114 µM (top of the series); also: nearly all actives have a fitted effect of over 70% in size; also: potency is read from the fitted curve at half-maximal effect;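 as to activity change, negative = inhibition: purified recombinant full-length human furin enzyme at 5 nM; fluorescence gain from furin cutting a BOC-RVRR-AMC peptide substrate over 15 min; top concentration of the series differs between compounds; plate controls were no-inhibitor control for no effect and no-enzyme control for full effect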
Sequence of UniProt P09958 (P09958 whole entry, looked up): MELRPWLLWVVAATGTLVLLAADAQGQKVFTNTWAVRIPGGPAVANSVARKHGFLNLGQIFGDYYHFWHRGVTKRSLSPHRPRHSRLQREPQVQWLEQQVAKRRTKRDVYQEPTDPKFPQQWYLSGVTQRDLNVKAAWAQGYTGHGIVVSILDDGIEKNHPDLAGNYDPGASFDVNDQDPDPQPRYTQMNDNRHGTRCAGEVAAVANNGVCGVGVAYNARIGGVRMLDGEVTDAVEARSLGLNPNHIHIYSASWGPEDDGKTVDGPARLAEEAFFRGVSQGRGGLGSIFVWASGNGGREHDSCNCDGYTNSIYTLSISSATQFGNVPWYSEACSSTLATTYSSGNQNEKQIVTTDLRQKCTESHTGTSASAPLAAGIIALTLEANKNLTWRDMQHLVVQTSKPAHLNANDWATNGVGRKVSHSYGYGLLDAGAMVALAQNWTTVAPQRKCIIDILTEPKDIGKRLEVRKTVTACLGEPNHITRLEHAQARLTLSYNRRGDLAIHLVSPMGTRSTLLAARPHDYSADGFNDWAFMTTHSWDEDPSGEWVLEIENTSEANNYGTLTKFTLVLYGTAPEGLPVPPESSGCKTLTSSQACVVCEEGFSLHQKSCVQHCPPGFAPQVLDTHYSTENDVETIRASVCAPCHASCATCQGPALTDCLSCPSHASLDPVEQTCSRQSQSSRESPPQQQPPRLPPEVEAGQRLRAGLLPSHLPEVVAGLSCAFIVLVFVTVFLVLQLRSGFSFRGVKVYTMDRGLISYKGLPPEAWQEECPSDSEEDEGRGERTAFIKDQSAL
Method in brief: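 Counterscreen measures cleavage of 2 microM BOC-RVRR-AMC, below its ~15 microM Km, by 5 nM full-length human furin at pH 7.0 after a 15-min compound preincubation. Inhibition derives from the 15-min fluorescence increase at 37C.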

[1] = Confirmatory screen GU Rhodamine qHTS for Zika virus inhibitors qHTS (AID 1347157); also: nearly all actives have a fitted effect of over 70% in size; also: potency is read from the fitted curve at half-maximal effect;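 as to activity change, negative = inhibition: plate controls were no-inhibitor wells for no effect and no-enzyme wells for full effect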
Method in brief: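 Unlinked NS2B/NS3, 25 nM; Rhod110 peptide, 1.5 microM; compounds, up to 114 microM. Reaction run 15 min at RT in 10 mM Tris-HCl pH 8.0, 0.01% Tween 20; kinetic fluorescence change fitted with a 4-parameter Hill model.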

[2] = Confirmatory screen NINDS Rhodamine qHTS for Zika virus inhibitors (AID 1347161); also: potency is read from the fitted curve at half-maximal effect; nearly all actives have a fitted effect of over 60% in size
Method in brief: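 Enzyme (25 nM, linked NS2B-NS3) was preincubated 15 min with compound in 10 mM Tris-HCl pH 8.0, 0.01% Tween 20. Rhodamine110 substrate (1.5 microM) was then added and fluorescence read at start and after 15 min.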

[3] = test system: Zika virus NS2B-NS3 protease (linked); test: 384 well plate NINDS AMC confirmatory qHTS for Zika virus inhibitors (AID 1347163); also: potency is read from the fitted curve at half-maximal effect; nearly all actives have a fitted effect of over 50% in size
Method in brief: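 Fluorescence at 355/460 nm was read after 25 minutes of cleavage of 30 microM Ac-VKTGKR-AMC at room temperature, in the dark. Before substrate addition, compounds (up to 1 mM final) sat ~15 minutes with 5, 30 or 60 nM linked protease. Signals were normalized to no-enzyme and no-inhibitor wells.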

[4] = test system: Zika virus NS2B-NS3 protease (linked construct); test: 384 well plate NINDS Rhodamine confirmatory qHTS for Zika virus inhibitors (AID 1347164);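 also: fluorescence from protease cleavage of Ac-LKRR-rhodamine 110 substrate; potency is read from the fitted curve at half-maximal effect; nearly all actives have a fitted effect of over 65% in size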
Method in brief: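 Linked NS2B-NS3 protease (final 5, 30 or 60 nM) preincubated ~15 minutes with compounds, then 10 microM Ac-LKRR-Rhodamine 110 added. Fluorescence (485/538 nm) read after 25 minutes at room temperature, normalized to no-enzyme and no-inhibitor controls.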

[5] = target: 3',5'-cyclic-AMP phosphodiesterase 4B (Homo sapiens) (UniProt Q07343); test: qHTS Assay for Inhibitors of PDE-IV (AID 607; active = well fitted activation curve with a large enough effect in the main read-out, with a control signal flat, not every such curve was filed as active; inconclusive = small, poorly fitted or top-dose-only effect, or effect the other way, or a change in a side signal; also: potency is read from the fitted curve at half-maximal effect); details: HEK293 ACTOne CNG channel cells, membrane potential fluorescence; activation (PDE inhibition): at 22.9 µM (top of the series)
Sequence of UniProt Q07343 (Q07343 whole entry, looked up): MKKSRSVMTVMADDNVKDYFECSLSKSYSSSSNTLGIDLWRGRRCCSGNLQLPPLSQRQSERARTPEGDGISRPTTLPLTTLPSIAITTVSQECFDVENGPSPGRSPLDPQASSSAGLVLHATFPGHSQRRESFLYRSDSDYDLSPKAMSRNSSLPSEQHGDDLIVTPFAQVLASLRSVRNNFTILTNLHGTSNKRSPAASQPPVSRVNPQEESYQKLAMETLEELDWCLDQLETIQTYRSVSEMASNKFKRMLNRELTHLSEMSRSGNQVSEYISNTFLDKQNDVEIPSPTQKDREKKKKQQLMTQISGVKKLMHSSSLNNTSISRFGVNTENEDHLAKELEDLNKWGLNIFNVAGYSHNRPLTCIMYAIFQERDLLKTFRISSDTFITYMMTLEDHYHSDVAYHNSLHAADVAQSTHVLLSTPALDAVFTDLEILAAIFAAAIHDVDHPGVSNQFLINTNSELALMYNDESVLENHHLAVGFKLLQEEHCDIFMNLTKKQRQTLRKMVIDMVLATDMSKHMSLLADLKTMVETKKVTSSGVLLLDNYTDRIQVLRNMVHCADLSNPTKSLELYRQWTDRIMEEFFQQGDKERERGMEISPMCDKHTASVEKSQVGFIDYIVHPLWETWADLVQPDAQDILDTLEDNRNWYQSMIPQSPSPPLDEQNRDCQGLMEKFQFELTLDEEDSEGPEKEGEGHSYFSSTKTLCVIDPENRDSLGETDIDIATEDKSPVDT
Method in brief: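 HEK293 ACTOne cells with CNG channel (1000/well), endogenous PDE4; membrane potential dye, compounds up to 22.9 uM final. Fluorescence Ex 535/Em 590; RO 20-1724 (100 uM final) as reference.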

[6] = target: Ubiquitin carboxyl-terminal hydrolase 1 (Homo sapiens) (UniProt O94782); test: Inhibitors of USP1/UAF1: Pilot qHTS (AID 504865);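 also: rhodamine fluorescence freed from ubiquitin-rhodamine substrate followed over time; potency is read from the fitted curve at half-maximal effect; nearly all actives have a fitted effect of over 35% in size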
Sequence of UniProt O94782 (O94782 whole entry, looked up): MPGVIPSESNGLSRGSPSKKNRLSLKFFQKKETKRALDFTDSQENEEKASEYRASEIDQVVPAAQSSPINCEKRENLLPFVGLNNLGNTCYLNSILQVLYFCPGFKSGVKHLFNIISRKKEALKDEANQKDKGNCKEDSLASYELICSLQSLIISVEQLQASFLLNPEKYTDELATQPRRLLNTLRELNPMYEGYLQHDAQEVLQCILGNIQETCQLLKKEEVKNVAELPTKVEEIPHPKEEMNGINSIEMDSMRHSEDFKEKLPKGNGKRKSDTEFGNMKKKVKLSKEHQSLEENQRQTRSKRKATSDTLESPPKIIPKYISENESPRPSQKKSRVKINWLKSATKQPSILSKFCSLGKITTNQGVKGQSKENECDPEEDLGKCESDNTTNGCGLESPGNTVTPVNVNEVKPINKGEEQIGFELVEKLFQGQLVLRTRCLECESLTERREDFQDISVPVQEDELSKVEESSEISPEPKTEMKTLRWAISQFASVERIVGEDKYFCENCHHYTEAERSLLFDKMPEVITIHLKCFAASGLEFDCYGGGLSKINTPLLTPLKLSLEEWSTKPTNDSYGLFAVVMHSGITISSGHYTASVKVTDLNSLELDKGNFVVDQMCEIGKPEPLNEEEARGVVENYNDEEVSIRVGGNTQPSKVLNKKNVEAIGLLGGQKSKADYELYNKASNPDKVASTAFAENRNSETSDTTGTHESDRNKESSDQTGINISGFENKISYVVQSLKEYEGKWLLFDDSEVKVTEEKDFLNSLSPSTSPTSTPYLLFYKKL
Method in brief: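 USP1/UAF1 complex at 1 nM preincubated 15 min at room temperature with compound, then Ub-Rho substrate added at 150 nM final. Fluorescence (480/540 nm) read kinetically in 50 mM HEPES pH 7.8, 0.5 mM EDTA, 1 mM TCEP, 0.1 mg/ml BSA, 0.01% Tween-20.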

[7] = test system: Zika virus NS2B-NS3 protease; test: Primary screen GU AMC qHTS for Zika virus inhibitors (AID 1347154); also: potency is read from the fitted curve at half-maximal effect; nearly all actives have a fitted effect of over 70% in size
Method in brief: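 Unlinked Zika NS2B hydrophilic domain/NS3 protease domain noncovalent complex (25 nM final) in 10 mM Tris-HCl pH 8.0, 0.01% Tween 20, with AMC peptide substrate. Fluorescence (ex 340, em 450 nm) change over 15 min, room temperature; percent inhibition fitted to 4-parameter Hill equation.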

[8] = ZIKV-mCherry secondary qHTS for Zika virus inhibitors (AID 1347158); details: Vero cells, ZIKV-mCherry infection imaging, 48-72 h; activity change, negative = inhibition: at 49.2 µM (top of the series); also: potency is read from the fitted curve at half-maximal effect; as to activity change, negative = inhibition: top concentration of the series differs between compounds
Method in brief: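 Compounds were tested in Vero monkey kidney cells infected with recombinant mCherry-expressing Zika virus at MOI 1 for 48-72 h at 37 °C. Fixed cells were nuclear-stained and imaged, and infection rate was taken as the fraction of mCherry-positive cells.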

[9] = qHTS Assay for Lipid Storage Modulators (AID 1519; calls by dose curve; also: % is scaled to controls: 0 for no effect and ±100 for the full control effect); details: Drosophila S3 cells, BODIPY lipid droplet/cell ratio, laser cytometry, cells loaded with oleic acid; activity change, negative = inhibition: at 57.5 µM (top of the series) unless noted
Method in brief: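 Cells seeded at 5,000 per well were treated with compounds over a concentration series and loaded with oleic acid (400 uM, as added). Lipid droplet fluorescence (488 nm excitation, 500-530 nm channel) was read by laser-scanning cytometry and normalized to 20 uM Triacsin C.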

[10] = Primary qHTS for small molecule stabilizers of the endoplasmic reticulum resident proteome: Secreted ER Calcium Modulated Protein (SERCaMP) assay (AID 1508630); details: SH-SY5Y GLuc-SERCaMP (Gaussia luciferase released on ER calcium loss) secretion, thapsigargin, luminescence; activity change, negative = inhibition: at 38.4 µM (top of the series) unless noted; also: potency is read from the fitted curve at half-maximal effect; as to activity change, negative = inhibition: % is scaled to controls: 0 for no effect and ±100 for the full control effect
Method in brief: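 The SH-SY5Y reporter protocol was run at 3 concentrations up to 38.3 uM (primary) or 11 concentrations (follow-up): 16 h compound, 100 nM thapsigargin for 4 h, then extracellular luciferase luminescence.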

[11] = Tertiary RLuc qRT-PCR qHTS assay for Zika virus inhibitors (AID 1347169); also: nearly all actives have a fitted effect of over 55% in size; also: potency is read from the fitted curve at half-maximal effect; as to activity change, negative = inhibition: top concentration of the series differs between compounds; % is scaled to controls: 0 for no effect and ±100 for the full control effect
Method in brief: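 Vero cells (1,000/well) infected with recombinant ZIKV-RLuc (Cambodian) at MOI 1-2 after compound addition, 48-72 hrs at 37 degrees C. Live-cell Renilla luciferase substrate added; luminescence read after 1-1.5 hrs.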

[12] = test system: Zika virus NS2B-NS3 protease (linked construct); test: Confirmatory screen NINDS AMC qHTS for Zika virus inhibitors (AID 1347152); also: nearly all actives have a fitted effect of over 70% in size; also: potency is read from the fitted curve at half-maximal effect;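 as to activity change, negative = inhibition: AMC fluorescence gain from cleaved Bz-Nle-KRR-AMC substrate over 15 min; top concentration of the series differs between compounds; 0% = no-inhibitor control and -100% = no-enzyme control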
Method in brief: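 Linked NS2B-NS3 protease, 1 nM, in 10 mM Tris-HCl pH 8.0, 0.01% Tween 20; compounds preincubated 15 min at room temperature. Nle-KRR-AMC 10 microM (Km 18.3 µM); 15-min fluorescence change (340/450 nm) fitted to 4-parameter Hill.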
Tags tell the direction and shape of the fitted curve.

COc1ccc(C(=O)Nc2ccc(C(=O)OCc3cc(=O)n4nc(C(C)C)sc4n3)cc2)cc1
Potency (Furin (Homo sapiens)): active: 59.1 µM | Potency [1]: inconclusive: 11.2 µM [inhibitor, full curve] | Potency [2]: inconclusive: 20 µM [inhibitor, partial curve] | Potency [3]: inconclusive: 15.8 µM [inhibitor, full curve] | Potency [4]: inconclusive: 44.7 µM [inhibitor, full curve, poor fit]

CCCCc1nn2c(=O)cc(COC(=O)c3ccc(NC(=O)c4cccs4)cc3)nc2s1
Potency (Furin (Homo sapiens)): inconclusive: 26.4 µM [inhibitor, full curve, poor fit] | Potency [1]: inactive

O=C(Nc1ccc(C(=O)Nc2ccc(C(=O)Nc3ccc(S(=O)(=O)O)c4cc(S(=O)(=O)O)cc(S(=O)(=O)O)c34)cc2)cc1)Nc1ccc(C(=O)Nc2ccc(C(=O)Nc3ccc(S(=O)(=O)O)c4cc(S(=O)(=O)O)cc(S(=O)(=O)O)c34)cc2)cc1
Potency [5]: inconclusive: 15.1 µM [inhibitor, partial curve] | Potency [6]: active: 39.8 µM | Potency (Furin (Homo sapiens)): inconclusive: 591 nM [inhibitor, full curve] and inconclusive: 1.45 µM [inhibitor, full curve] | Potency [7]: inconclusive: 844 nM [inhibitor, full curve] and inconclusive: 423 nM [inhibitor, full curve] | Potency [1]: active: 2 µM and inconclusive: 3.98 µM [inhibitor, full curve, poor fit] | Potency [8]: inconclusive: 3.55 µM [inhibitor, full curve]

COc1cc(-c2ccc(N=Nc3ccc4c(S(=O)(=O)O)cc(S(=O)(=O)O)c(N)c4c3O)c(OC)c2)ccc1N=Nc1ccc2c(S(=O)(=O)O)cc(S(=O)(=O)O)c(N)c2c1O
activity change, negative = inhibition [9]: inconclusive: 14.1% | Potency [6]: active: 17.8 µM and active: 8.91 µM | Potency (Furin (Homo sapiens)): inconclusive: 12.1 µM [inhibitor, partial curve, poor fit] | Potency [7]: inconclusive: 4.23 µM [inhibitor, full curve] | Potency [10]: inconclusive: 10 µM [inhibitor, partial curve, poor fit] | activity change, negative = inhibition [10]: inactive: -28.6% [at 7.35 µM]

O=C(Nc1ccc(C(=O)OCc2cc(=O)n3c4c(sc3n2)CCCC4)cc1)c1ccc(F)cc1
Potency (Furin (Homo sapiens)): active: 66.3 µM | Potency [1]: inconclusive: 89.1 µM [inhibitor, single point] | Potency [8]: inactive | Potency [2]: inconclusive: 17.8 µM [inhibitor, full curve] | Potency [4]: inconclusive: 562 µM [inhibitor, partial curve, poor fit]

Cc1ccc(-c2nnc(Nc3ccc(O)cc3)c3ccccc23)cc1S(=O)(=O)NC(C)(C)CO
Potency (Furin (Homo sapiens)): inactive | Potency [1]: inconclusive: 89.1 µM [inhibitor, single point] | Potency [2]: inconclusive: 7.94 µM [inhibitor, full curve, poor fit]

O=C(CNC(=O)c1ccccc1)OC(C(=O)Nc1cc(C(F)(F)F)ccc1Cl)c1ccccc1 (centres undefined)
Potency (Furin (Homo sapiens)): inactive | Potency [1]: inactive

Cc1ccc(Nc2nnc(-c3ccc(C)c(S(=O)(=O)NCc4nc5ccccc5[nH]4)c3)c3ccccc23)cc1
Potency (Furin (Homo sapiens)): inconclusive: 29.6 µM [inhibitor, partial curve] | Potency [1]: inconclusive: 39.8 µM [inhibitor, partial curve] | Potency [8]: inactive | Potency [4]: inconclusive: 12.6 µM [inhibitor, full curve, poor fit] | Potency [11]: inconclusive: 0.437 µM [inhibitor, single point]

O=C(OCC#CCSc1nnc(-c2ccc(Cl)cc2)o1)c1ccc(F)cc1
Potency (Furin (Homo sapiens)): inconclusive: 2.21 µM [inhibitor, full curve, poor fit] | Potency [12]: inactive | Potency [11]: inactive

O=C(Nc1ccccc1C(F)(F)F)c1ccc2oc(=O)c(S(=O)(=O)c3ccc(F)cc3)cc2c1
Potency (Furin (Homo sapiens)): inconclusive: 83.5 µM [inhibitor, single point] | Potency [1]: inactive

O=c1[nH]c(=S)[nH]c(-c2ccccc2)c1Cc1c(O)ccc2ccccc12
Potency [6]: inconclusive: 56.2 µM [inhibitor, partial curve] | Potency (Furin (Homo sapiens)): inactive | Potency [12]: inconclusive: 21.5 µM [inhibitor, partial curve] | Potency [3]: inconclusive: 0.447 µM [inhibitor, full curve, poor fit] | Potency [11]: inactive

Cc1cc(S(=O)(=O)Nc2ccc(C(=O)O)cc2)c(C)c(S(=O)(=O)c2ccc(Cl)cc2)c1
Potency (Furin (Homo sapiens)): inactive | Potency [1]: inconclusive: 39.8 µM [inhibitor, partial curve] | Potency [8]: inactive | Potency [3]: inconclusive: 316 µM [inhibitor, partial curve, poor fit] | Potency [11]: inactive

CCOc1nc2cccc(C(=O)OC(C)OC(=O)OC3CCCCC3)c2n1Cc1ccc(-c2ccccc2-c2nn[nH]n2)cc1 (centres undefined)
Potency [6]: active: 22.4 µM | Potency (Furin (Homo sapiens)): inconclusive: 4.29 µM [inhibitor, partial curve, poor fit] | Potency [7]: inconclusive: 5.97 µM [inhibitor, partial curve, poor fit] | Potency [8]: inconclusive: 10 µM [inhibitor, full curve, poor fit] | Potency [3]: inconclusive: 39.8 µM [inhibitor, partial curve, poor fit]
